# Results taken from ChEMBL document CHEMBL5606458, “ASAP - ZIKV NS2B-NS3 protease fluorescence single point” (2024).
# Among all 2,700 compounds or so, about 160 (5.9%) showed an effect of 50% or more. This is one part of the list.
# Target: Nonstructural protein 3 (Zika virus) (UniProt A0A024AXB9)
# [1] = PRVABC59, Concentration 50.0 uM, Number of replicates 1.0
# [2] = PRVABC59, Concentration 15.0 uM, Number of replicates 1.0
# Sequence of UniProt A0A024AXB9 (A0A024AXB9 as listed by the source): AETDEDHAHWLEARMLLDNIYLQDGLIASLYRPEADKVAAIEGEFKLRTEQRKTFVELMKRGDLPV
smiles,measurement,setting,value
O=Cc1ccc(N2CCC(C(=O)N3CC(OCc4ccccc4)C3)CC2)cc1,inhibition,[1],25.3%
O=C(O)[C@H](c1c[nH]c2ccccc12)N1CCC(c2cnc3ccc[nH]c2-3)CC1,inhibition,"PRVABC59, Concentration 49.5 uM, Number of replicates 2.0, Standard deviation 2.240624574165748 %",1.83%
same,inhibition,"PRVABC59, Concentration 99.01 uM, Number of replicates 2.0, Standard deviation 0.08733636230948652 %",6.77%
same,inhibition,"PRVABC59, Concentration 198.0 uM, Number of replicates 2.0, Standard deviation 0.707723811048747 %",15%
O=Cc1ccc(N2CCC(C(=O)N3CCN(c4nccs4)CC3)CC2)cc1,inhibition,[1],23.4%
O=C(NCc1ccccc1-c1ccccc1)c1cc(Cl)ccc1NS(=O)(=O)c1ccc(Oc2ccccc2Cl)cc1,inhibition,[2],13.1%
Cc1cc(CO)c2cccc(Cc3ccccc3NC(=O)CCC3CCNCC3)c2n1,inhibition,"PRVABC59, Concentration 49.95 uM, Number of replicates 2.0, Standard deviation 0.020358613704702253 %",4.96%
same,inhibition,"PRVABC59, Concentration 99.9 uM, Number of replicates 2.0, Standard deviation 1.9188023762412802 %",26.8%
COc1cc(CC(=O)NCc2cccnc2)nc(N2CCNCC2)n1,inhibition,"PRVABC59, Concentration 49.5 uM, Number of replicates 2.0, Standard deviation 0.24894019214220156 %",-2.17%
same,inhibition,"PRVABC59, Concentration 99.01 uM, Number of replicates 2.0, Standard deviation 0.7234823701930005 %",0.029%
same,inhibition,"PRVABC59, Concentration 198.0 uM, Number of replicates 2.0, Standard deviation 0.18151872151629458 %",3.81%
CNC(=O)C1CN(S(=O)(=O)c2ccc(Oc3ccccc3Cl)cc2)C1,inhibition,"PRVABC59, Concentration 49.5 uM, Number of replicates 2.0, Standard deviation 2.02275079245079 %",-0.647%
same,inhibition,"PRVABC59, Concentration 99.01 uM, Number of replicates 2.0, Standard deviation 1.788137114907563 %",1.9%
same,inhibition,"PRVABC59, Concentration 198.0 uM, Number of replicates 2.0, Standard deviation 2.606114974318383 %",6.78%
COc1ccccc1OCCCN(C)C(=O)C1CCN(c2ccc(C=O)cc2)CC1,inhibition,[1],22.6%
O=C(NCc1ccccc1-n1cccn1)c1cc(Cl)ccc1NS(=O)(=O)c1ccc(Oc2ccccc2Cl)cc1,inhibition,[2],20.6%
CCc1cccc2[nH]c(C(=O)N3C[C@H](n4cc(CO)nn4)CCC3(C)C)cc12,inhibition,"PRVABC59, Concentration 49.5 uM, Number of replicates 2.0, Standard deviation 1.345657751466366 %",1.61%
same,inhibition,"PRVABC59, Concentration 99.01 uM, Number of replicates 2.0, Standard deviation 0.921351350459793 %",4.33%
same,inhibition,"PRVABC59, Concentration 198.0 uM, Number of replicates 2.0, Standard deviation 1.6164058188461652 %",5.38%
O=C(CN1CCC(NC(=O)c2cc(Cl)ccc2NS(=O)(=O)c2ccc(Oc3ccccc3Cl)cc2)CC1)NC1CC1,inhibition,[2],-1.61%
C[C@H]1CCC[C@H](C)N1CCNC(=O)c1cc(Cl)ccc1NS(=O)(=O)c1ccc(Oc2ccccc2Cl)cc1,inhibition,[2],8.63%
CN(C)c1ccccc1CNC(=O)c1cc(Cl)ccc1NS(=O)(=O)c1ccc(Oc2ccccc2Cl)cc1,inhibition,[2],24.1%
O=C(c1cc(Cl)ccc1NS(=O)(=O)c1ccc(Oc2ccccc2Cl)cc1)N1CCc2ccc([N+](=O)[O-])cc2C1,inhibition,[2],16.9%
N#Cc1cnn(-c2ccc([N+](=O)[O-])cc2)c1NC(=O)C1CCN(c2ccc(C=O)cc2)CC1,inhibition,[1],32.6%
O=Cc1ccc(N2CCC(C(=O)N3CCC(c4nc5ccccc5s4)CC3)CC2)cc1,inhibition,[1],23.8%
Cc1ccc(C[C@H]2CCCN(C(=O)c3cc(Cl)ccc3NS(=O)(=O)c3ccc(Oc4ccccc4Cl)cc3)C2)cc1,inhibition,[2],5.03%
O=C(c1cc(Cl)ccc1NS(=O)(=O)c1ccc(Oc2ccccc2Cl)cc1)N1C[C@@H]2C[C@H](C1)c1cccc(=O)n1C2,inhibition,[2],-1.26%
Cc1nc2ccc(-c3ccccc3C(=O)Nc3cnn(C)c3)cn2n1,inhibition,"PRVABC59, Concentration 49.5 uM, Number of replicates 2.0, Standard deviation 0.30374829112055624 %",-2.95%
same,inhibition,"PRVABC59, Concentration 99.01 uM, Number of replicates 2.0, Standard deviation 1.6059154261049553 %",-0.369%
same,inhibition,"PRVABC59, Concentration 198.0 uM, Number of replicates 2.0, Standard deviation 1.9491645233666188 %",1.14%
CN(C)CCCN(CCCN(C)C)C(=O)c1cc(Cl)ccc1NS(=O)(=O)c1ccc(Oc2ccccc2Cl)cc1,inhibition,[2],1.26%
O=C(Nc1ccc2c(c1)OC(F)(F)O2)c1cc(Cl)ccc1NS(=O)(=O)c1ccc(Oc2ccccc2Cl)cc1,inhibition,[2],50%
O=Cc1ccc(N2CCC(C(=O)NC34C[C@@H]5C[C@@H](CC(O)(C5)C3)C4)CC2)cc1,inhibition,[1],26.3%
COc1ccc(C(=O)C2CCN(C(=O)c3cc(Cl)ccc3NS(=O)(=O)c3ccc(Oc4ccccc4Cl)cc3)CC2)cc1,inhibition,[2],7.47%
CC(C)(CC(=O)N1CCCC1)NC(=O)c1cc(Cl)ccc1NS(=O)(=O)c1ccc(Oc2ccccc2Cl)cc1,inhibition,[2],23.9%
O=Cc1ccc(N2CCC(C(=O)Nc3nc4cc(Cl)ccc4s3)CC2)cc1,inhibition,[1],22.7%
COc1ccc(F)c(-c2nn(C)cc2NC(=O)c2ccccc2C(F)(F)F)c1,inhibition,"PRVABC59, Concentration 49.5 uM, Number of replicates 2.0, Standard deviation 3.6790310281766874 %",-0.787%
same,inhibition,"PRVABC59, Concentration 99.01 uM, Number of replicates 2.0, Standard deviation 0.02996615641015459 %",-1.95%
same,inhibition,"PRVABC59, Concentration 198.0 uM, Number of replicates 2.0, Standard deviation 1.5500693766883227 %",-0.514%
O=Cc1ccc(N2CCC(C(=O)Nc3ccc4c(c3)OCCO4)CC2)cc1,inhibition,[1],3.49%
Cc1cc(CO)c2cccc(NC(=O)c3nc(-c4ccccc4)oc3C(F)(F)F)c2n1,inhibition,"PRVABC59, Concentration 49.95 uM, Number of replicates 2.0, Standard deviation 2.699761899961709 %",15.3%
same,inhibition,"PRVABC59, Concentration 99.9 uM, Number of replicates 2.0, Standard deviation 2.5993991268892636 %",24.8%
O=C(Nc1ccc2scnc2c1)c1cc(Cl)ccc1NS(=O)(=O)c1ccc(Oc2ccccc2Cl)cc1,inhibition,[2],71.2%
COc1cc(CNC(=O)C2CCN(c3ccc(C=O)cc3)CC2)cc(OC)c1,inhibition,"PRVABC59, Concentration 10.0 uM, Number of replicates 1.0",22.4%
CC(C)(CO)NC(=O)c1cc(Cl)cc(NS(=O)(=O)c2ccccc2)c1,inhibition,"PRVABC59, Concentration 49.5 uM, Number of replicates 2.0, Standard deviation 1.5800354488047803 %",-3.93%
same,inhibition,"PRVABC59, Concentration 99.01 uM, Number of replicates 2.0, Standard deviation 1.0610755711187447 %",-1.75%
same,inhibition,"PRVABC59, Concentration 198.0 uM, Number of replicates 2.0, Standard deviation 2.27062003317233 %",-1.04%
CCCN(C(=O)C1CCN(c2ccc(C=O)cc2)CC1)[C@@H](C)c1ccccc1,inhibition,[1],28.1%
O=Cc1ccc(N2CCC(C(=O)Nc3cnn(-c4ccccc4)c(=O)c3Cl)CC2)cc1,inhibition,[1],23.2%
CC(C)COc1ccc(CNC(=O)c2cc(Cl)ccc2NS(=O)(=O)c2ccc(Oc3ccccc3Cl)cc2)cc1,inhibition,[2],12.2%
Cc1cnccc1NC(=O)c1cc(C2CCCC2)n(C)c1C,inhibition,"PRVABC59, Concentration 49.5 uM, Number of replicates 2.0, Standard deviation 2.3333933807570615 %",-1.32%
same,inhibition,"PRVABC59, Concentration 99.01 uM, Number of replicates 2.0, Standard deviation 1.0190135220670546 %",2.25%
same,inhibition,"PRVABC59, Concentration 198.0 uM, Number of replicates 2.0, Standard deviation 1.094495661764367 %",8.21%
CCN(C(=O)c1cc(C)cc2cn[nH]c12)[C@H]1CCN(C(=O)c2nc(N)ccc2C)C1,inhibition,"PRVABC59, Concentration 49.5 uM, Number of replicates 2.0, Standard deviation 1.4042129581584302 %",-8.39%
CC(=O)N[C@@H](CCCCN)C(=O)Nc1cccc2c(CO)cc(C)nc12,inhibition,"PRVABC59, Concentration 49.95 uM, Number of replicates 2.0, Standard deviation 2.062511665720634 %",70.2%
same,inhibition,"PRVABC59, Concentration 99.9 uM, Number of replicates 2.0, Standard deviation 0.26572610179233236 %",93.5%
CN(C)C1(CNC(=O)C2CCN(c3ccc(C=O)cc3)CC2)CCOCC1,inhibition,[1],20%
Cc1nc([C@H]2CCCNC2)[nH]c1C(=O)Nc1cc(-c2cccnc2)n[nH]1,inhibition,"PRVABC59, Concentration 49.5 uM, Number of replicates 2.0, Standard deviation 1.073120297486188 %",1.96%
same,inhibition,"PRVABC59, Concentration 99.01 uM, Number of replicates 2.0, Standard deviation 1.2142159765956841 %",7.26%
same,inhibition,"PRVABC59, Concentration 198.0 uM, Number of replicates 2.0, Standard deviation 1.840202887040708 %",14.6%
NCc1cccc(NC(=O)[C@H]2CN(C(=O)OCc3ccccc3)CC23CCOCC3)c1,inhibition,"PRVABC59, Concentration 49.5 uM, Number of replicates 2.0, Standard deviation 2.1231725289643024 %",1.7%
same,inhibition,"PRVABC59, Concentration 99.01 uM, Number of replicates 2.0, Standard deviation 0.8161413526338066 %",5.13%
same,inhibition,"PRVABC59, Concentration 198.0 uM, Number of replicates 2.0, Standard deviation 1.1474165934537979 %",10.8%
CNC(=O)c1ccccc1NC(=O)c1cc(Cl)ccc1NS(=O)(=O)c1ccc(Oc2ccccc2Cl)cc1,inhibition,[2],12.1%
O=C(CNC(=O)c1cc(Cl)ccc1NS(=O)(=O)c1ccc(Oc2ccccc2Cl)cc1)NCc1ccccc1,inhibition,[2],33.2%
CC(=O)N[C@@H](CCCN)C(=O)Nc1cccc2cccnc12,inhibition,"PRVABC59, Concentration 49.95 uM, Number of replicates 2.0, Standard deviation 1.6196420224622259 %",19.2%
same,inhibition,"PRVABC59, Concentration 99.9 uM, Number of replicates 2.0, Standard deviation 2.0688397621434533 %",38.7%
CNS(=O)(=O)c1ccc(CNCc2ccc(N3CCN(C)CC3)cc2)cc1,inhibition,"PRVABC59, Concentration 49.5 uM, Number of replicates 2.0, Standard deviation 1.6932523363234724 %",-6.47%
same,inhibition,"PRVABC59, Concentration 99.01 uM, Number of replicates 2.0, Standard deviation 2.0489123949927146 %",-5.52%
same,inhibition,"PRVABC59, Concentration 198.0 uM, Number of replicates 2.0, Standard deviation 0.780906250103911 %",-3.86%
Cc1cc(CO)c2cccc(Cc3ccccc3C(=O)Nc3cc(C)on3)c2n1,inhibition,"PRVABC59, Concentration 49.95 uM, Number of replicates 2.0, Standard deviation 0.7445712834152752 %",-2.77%
same,inhibition,"PRVABC59, Concentration 99.9 uM, Number of replicates 2.0, Standard deviation 1.0119877161772735 %",0.512%
O=Cc1ccc(N2CCC(C(=O)N3CCN(CCc4ccncc4)CC3)CC2)cc1,inhibition,[1],23.8%
Cc1cc(CO)c2cccc(Cc3ccccc3NC(=O)Cc3c(C)c4c(=O)[nH]n(C)c4[nH]c3=O)c2n1,inhibition,"PRVABC59, Concentration 49.95 uM, Number of replicates 2.0, Standard deviation 2.3870518401485845 %",19.5%
same,inhibition,"PRVABC59, Concentration 99.9 uM, Number of replicates 2.0, Standard deviation 1.6185118125725577 %",39.4%
O=C(Nc1ccn(C2CCC2)n1)c1ccn([C@H]2CCCNC2)n1,inhibition,"PRVABC59, Concentration 49.5 uM, Number of replicates 2.0, Standard deviation 2.999141248765626 %",-2.8%
same,inhibition,"PRVABC59, Concentration 99.01 uM, Number of replicates 2.0, Standard deviation 3.4363455969408965 %",-1.8%
same,inhibition,"PRVABC59, Concentration 198.0 uM, Number of replicates 2.0, Standard deviation 3.522152218310256 %",-2.36%
O=C(NC1(c2ccc(Cl)cc2)CC1)c1cc(Cl)ccc1NS(=O)(=O)c1ccc(Oc2ccccc2Cl)cc1,inhibition,[2],28.6%
CNC(=O)c1cc(Cl)ccc1NS(=O)(=O)c1ccc(NS(C)(=O)=O)cc1,inhibition,"PRVABC59, Concentration 49.5 uM, Number of replicates 2.0, Standard deviation 1.6580072028436312 %",1.65%
same,inhibition,"PRVABC59, Concentration 99.01 uM, Number of replicates 2.0, Standard deviation 2.2961683990684207 %",3.81%
same,inhibition,"PRVABC59, Concentration 198.0 uM, Number of replicates 2.0, Standard deviation 2.5082156002477025 %",8.28%
O=Cc1ccc(N2CCC(C(=O)NCCc3nc(-c4ccc(Cl)cc4)no3)CC2)cc1,inhibition,[1],-7.2%
